The target of test [1] is T1, AKIN10^397–512 (Arabidopsis thaliana) (UniProt Q38997).
T1 sequence: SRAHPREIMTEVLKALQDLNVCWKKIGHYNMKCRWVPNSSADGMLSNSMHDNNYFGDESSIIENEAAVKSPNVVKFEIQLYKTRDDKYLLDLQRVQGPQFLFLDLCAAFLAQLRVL
Nature of the test: two-hybrid; Matchmaker GAL4 system, yeast strain AH109; AKIN10 fragments as GAL4 BD fusions (pGBKT7), EIN3 fragment as GAL4 AD fusion (pGADT7); growth on -Leu -Trp -His medium with 0.5 mM or 1.5 mM 3-AT, 30 °C, 3 to 4 days.

Sequences of proteins named here, by UniProt entry; tags and fusion partners are left off.
UniProt O49687: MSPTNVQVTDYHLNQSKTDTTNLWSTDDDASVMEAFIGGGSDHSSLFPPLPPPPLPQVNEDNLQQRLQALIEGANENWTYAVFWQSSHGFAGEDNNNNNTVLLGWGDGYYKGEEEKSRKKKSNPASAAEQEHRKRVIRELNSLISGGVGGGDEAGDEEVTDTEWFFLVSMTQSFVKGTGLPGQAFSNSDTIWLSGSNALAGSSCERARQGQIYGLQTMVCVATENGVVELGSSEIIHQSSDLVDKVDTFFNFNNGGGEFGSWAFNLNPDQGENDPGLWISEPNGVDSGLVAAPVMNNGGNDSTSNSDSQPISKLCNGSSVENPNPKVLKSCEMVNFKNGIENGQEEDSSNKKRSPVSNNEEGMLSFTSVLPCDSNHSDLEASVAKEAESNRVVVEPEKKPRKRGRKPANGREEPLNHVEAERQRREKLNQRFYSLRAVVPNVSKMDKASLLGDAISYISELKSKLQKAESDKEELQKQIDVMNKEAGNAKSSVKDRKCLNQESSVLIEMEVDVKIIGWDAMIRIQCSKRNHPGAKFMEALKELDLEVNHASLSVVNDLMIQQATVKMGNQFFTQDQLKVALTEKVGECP
UniProt Q9FIP9: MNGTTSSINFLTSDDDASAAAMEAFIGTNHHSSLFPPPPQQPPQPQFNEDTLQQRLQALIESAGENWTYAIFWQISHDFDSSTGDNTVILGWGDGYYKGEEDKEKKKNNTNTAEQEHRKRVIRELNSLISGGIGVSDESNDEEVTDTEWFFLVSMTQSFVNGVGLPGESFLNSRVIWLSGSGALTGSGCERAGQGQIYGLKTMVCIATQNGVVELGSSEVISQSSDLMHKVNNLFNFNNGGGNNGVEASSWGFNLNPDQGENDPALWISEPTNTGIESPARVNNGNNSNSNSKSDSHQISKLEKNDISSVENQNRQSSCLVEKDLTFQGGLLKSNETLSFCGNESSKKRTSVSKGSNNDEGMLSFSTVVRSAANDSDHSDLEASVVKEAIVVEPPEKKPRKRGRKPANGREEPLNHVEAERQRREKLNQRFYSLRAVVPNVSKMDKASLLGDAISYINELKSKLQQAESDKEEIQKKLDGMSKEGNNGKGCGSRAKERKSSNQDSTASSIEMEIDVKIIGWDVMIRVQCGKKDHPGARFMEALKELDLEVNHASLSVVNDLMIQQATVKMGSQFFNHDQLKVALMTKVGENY

Test [2] addresses T1, AKIN10^397–512 (Arabidopsis thaliana). The description is as above. This is another data set of the same source.
For test [3], the target named is T2, GFP-tagged AKIN10 (Arabidopsis thaliana) (UniProt Q38997).
T2 sequence: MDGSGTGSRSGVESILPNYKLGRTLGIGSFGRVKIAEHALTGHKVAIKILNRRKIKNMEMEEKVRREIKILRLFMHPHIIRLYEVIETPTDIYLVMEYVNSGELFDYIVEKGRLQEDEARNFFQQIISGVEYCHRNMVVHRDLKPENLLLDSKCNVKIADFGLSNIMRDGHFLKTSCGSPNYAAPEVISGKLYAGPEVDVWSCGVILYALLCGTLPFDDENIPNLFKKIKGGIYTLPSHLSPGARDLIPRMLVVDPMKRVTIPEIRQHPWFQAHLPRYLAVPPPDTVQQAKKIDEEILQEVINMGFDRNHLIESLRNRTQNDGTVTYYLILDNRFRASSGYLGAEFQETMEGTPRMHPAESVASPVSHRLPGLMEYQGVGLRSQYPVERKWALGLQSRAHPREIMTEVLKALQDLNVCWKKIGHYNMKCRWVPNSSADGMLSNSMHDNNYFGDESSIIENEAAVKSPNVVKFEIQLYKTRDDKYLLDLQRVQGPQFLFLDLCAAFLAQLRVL
As to the kind of experiment: co-IP; Arabidopsis protoplasts transfected with GFP-tagged AKIN10 and HA-tagged EIN3 200-500; IP with anti-GFP antibody and Protein A beads at 4 °C in 50 mM Tris-HCl pH 7.5, 150 mM NaCl, 5 mM EDTA, 1 mM DTT, 1% Triton-X100; blot with anti-HA.

This is an account of results in article PMC5466610.

Read-outs that look alike come from different tables or passages of the source. These are yes or no findings as the source states them, for the method shown. For part of these data: Binding seen in cells or lysates may run through a third protein. Some results given as binding are weak or reduced against the parent protein; the word gives no strength. For part of these data: Sequences can lack the tags named with a protein.

Take MYC4 (from UniProt O49687 1-589): the binding result in test [1] is given as “no binding”.
As to MYC3 (from UniProt Q9FIP9 1-592), in test [1], the binding result is “no binding”.

B1: EIN3^200–500 (domain or fragment, UniProt O24606 200-500)
chain: PQRRFPLEKGVPPPWWPNGKEDWWPQLGLPKDQGPAPYKKPHDLKKAWKVGVLTAVIKHMFPDIAKIRKLVRQSKCLQDKMTAKESATWLAIINQEESLARELYPESCPPLSLSGGSCSLLMNDCSQYDVEGFEKESHYEVEELKPEKVMNSSNFGMVAKMHDFPVKEEVPAGNSEFMRKRKPNRDLNTIMDRTVFTCENLGCAHSEISRGFLDRNSRDNHQLACPHRDSRLPYGAAPSRFHVNEVKPVVGFPQPRPVNSVAQPIDLTGIVPEDGQKMISELMSMYDRNVQSNQTSMVMEN
Take B1: the binding entry in test [2] is listed as “binds”.

B2: HA-tagged EIN3^200–500 (domain or fragment, UniProt O24606 200-500)
chain: B1 chain
For the molecule B2, the binding entry in test [3] was “binds”.

B3: MYB2 (protein, UniProt Q39028 1-273)
chain: MEDYERINSNSPTHEEDSDVRKGPWTEEEDAILVNFVSIHGDARWNHIARSSGLKRTGKSCRLRWLNYLRPDVRRGNITLEEQFMILKLHSLWGNRWSKIAQYLPGRTDNEIKNYWRTRVQKQAKHLRCDVNSNLFKETMRNVWMPRLVERINAQSLPTTCEQVESMITDPSQPVNEPSPVEPGFVQFSQNHHQQFVPATELSATSSNSPAETFSDVRGGVVNGSGYDPSGQTGFGEFNDWGCVGGDNMWTDEESFWFLQDQFCPDTTSYSYN
Turning to B3, the binding result in test [2] is given as “no binding”.

B4: EIN3^315–628 (domain or fragment, UniProt O24606 315-628)
chain: GSCSLLMNDCSQYDVEGFEKESHYEVEELKPEKVMNSSNFGMVAKMHDFPVKEEVPAGNSEFMRKRKPNRDLNTIMDRTVFTCENLGCAHSEISRGFLDRNSRDNHQLACPHRDSRLPYGAAPSRFHVNEVKPVVGFPQPRPVNSVAQPIDLTGIVPEDGQKMISELMSMYDRNVQSNQTSMVMENQSVSLLQPTVHNHQEHLQFPGNMVEGSFFEDLNIPNRANNNNSSNNQTFFQGNNNNNNVFKFDTADHNNFEAAHNNNNNSSGNRFQLVFDSTPFDMASFDYRDDMSMPGVVGTMDGMQQKQQDVSIWF
As for B4, the binding entry in test [2] is recorded as “no binding”.
